Results as given in a collection of fitness landscapes (doi:10.1016/j.celrep.2020.107928).
The full ranking holds about 81,000 sequences; the median of “one-hybrid fitness for binding parS DNA” is about -0.17, and the highest 2% start at about 0.51. The list shows a part of the results.

B1: Caulobacter ParB omega fusion; a variant is named by its letters at X, in order, B8GW30 (parent)
chain: MESVVVGEPGMSEGRRGLGRGLSALLGEVDAAPAQAPGEQLGGSREAPIEILQRNPDQPRRTFREEDLEDLSNSIREKGVLQPILVRPSPDTAGEYQIVAGERAWRAAQRAGLKTVPIMVRELDDLAVLEIGIIENVQRADLNVLEEALSYKVLMEKFERTQENIAQTIGKSXSHVANXMRLLXLPDEVQSYLVSGELTAXHARAIAAAADPVALAKQIIEGGLSVRETEALARKAPNLSAGKSKGGRPPRVKDTDTQALESDLSSVLGLDVSIDHRGSTGTLTITYATLEQLDDLCNRLTRGI

Variants of: B1
Assay: one-hybrid fitness for binding parS DNA (scaled: cognate 1, non-cognate 0); higher = stronger binding
Conditions: with parS DNA site
Outline: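 Fitness is the rescaled log change in variant-to-wild-type read ratio, measured by Illumina sequencing of plasmids before and after bacterial one-hybrid selection. The scale puts cognate at 1 and non-cognate at 0. Selection of Caulobacter ParB libraries, four specificity codons randomised, took place in E. coli USO with a HIS3 reporter, site 19 bp from the promoter, over 48 hours at 37°C on M9-minus-histidine with 0.1 mM IPTG and 5 mM 3-AT.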

| Variant | one-hybrid fitness for binding parS DNA |
| --- | --- |
| PLYR | ≤ 0.2 |
| GVTS | ≤ 0.2 |
| SCLA | ≤ 0.2 |
| EGAK | ≤ 0.2 |
| TLLI | ≤ 0.2 |
| RHVC | 0.773 |
| PEES | ≤ 0.2 |
| HRTL | ≤ 0.2 |
| EAFV | ≤ 0.2 |
| TRDL | ≤ 0.2 |
| NNCC | ≤ 0.2 |
| APWW | ≤ 0.2 |
| VVNR | ≤ 0.2 |
| EWRT | ≤ 0.2 |
| GATQ | ≤ 0.2 |
| PKSV | ≤ 0.2 |
| CFSL | ≤ 0.2 |
| GYIS | ≤ 0.2 |
| CFAN | ≤ 0.2 |
| NIPL | ≤ 0.2 |
| TPCQ | ≤ 0.2 |
| NNGS | ≤ 0.2 |
| REAG | ≤ 0.2 |
| CVEL | ≤ 0.2 |

| Variant | one-hybrid fitness for binding parS DNA |
| --- | --- |
| RDNR | ≤ 0.2 |
| SRDL | ≤ 0.2 |
| QIID | ≤ 0.2 |
| ECTD | ≤ 0.2 |
| HIPR | ≤ 0.2 |
| AGHD | ≤ 0.2 |
| CVHP | ≤ 0.2 |
| EVMM | ≤ 0.2 |
| PCTA | ≤ 0.2 |
| KFRC | ≤ 0.2 |
| VQLA | ≤ 0.2 |
| SEPS | ≤ 0.2 |
| GVGS | ≤ 0.2 |
| SITG | ≤ 0.2 |
| VHSN | ≤ 0.2 |
| QANC | ≤ 0.2 |
| DALR | ≤ 0.2 |
| ILYY | ≤ 0.2 |
| FMPK | ≤ 0.2 |
| RHGQ | ≤ 0.2 |
| TPYP | ≤ 0.2 |
| IKPC | ≤ 0.2 |
| NLAA | ≤ 0.2 |
| AHGS | ≤ 0.2 |

| Variant | one-hybrid fitness for binding parS DNA |
| --- | --- |
| CDTD | ≤ 0.2 |
| PTWS | ≤ 0.2 |
| GTKI | ≤ 0.2 |
| IHSQ | ≤ 0.2 |
| NCNF | ≤ 0.2 |
| WDHS | ≤ 0.2 |
| EGQA | ≤ 0.2 |
| YRRY | ≤ 0.2 |
| RMNM | 0.351 |
| PRIL | ≤ 0.2 |
| YIWG | ≤ 0.2 |
| ELPA | ≤ 0.2 |
| CTPC | ≤ 0.2 |
| RRFW | ≤ 0.2 |
| VRNC | ≤ 0.2 |
| LFRQ | ≤ 0.2 |
| AAWG | ≤ 0.2 |
| LSHI | ≤ 0.2 |
| MAQY | ≤ 0.2 |
| RPIF | ≤ 0.2 |
| QICS | ≤ 0.2 |
| IRLD | ≤ 0.2 |
| MHAL | ≤ 0.2 |
| AMAW | ≤ 0.2 |

| Variant | one-hybrid fitness for binding parS DNA |
| --- | --- |
| QEPL | ≤ 0.2 |
| PEVG | ≤ 0.2 |
| FTCV | ≤ 0.2 |
| YVYW | ≤ 0.2 |
| QSWT | ≤ 0.2 |
| QIRL | ≤ 0.2 |
| LRGW | ≤ 0.2 |
| QGRG | ≤ 0.2 |
| MYGE | ≤ 0.2 |
| MPSL | ≤ 0.2 |
| APVF | ≤ 0.2 |
| QSTE | ≤ 0.2 |
| LAQT | ≤ 0.2 |
| RGWI | ≤ 0.2 |
| ALGC | ≤ 0.2 |
| DLSF | ≤ 0.2 |
| VETG | ≤ 0.2 |
| NAPV | ≤ 0.2 |
| NKHR | ≤ 0.2 |
| WSDW | ≤ 0.2 |
| RKHK | ≤ 0.2 |
| KGQV | ≤ 0.2 |
| HDFF | ≤ 0.2 |
| CYCR | ≤ 0.2 |

| Variant | one-hybrid fitness for binding parS DNA |
| --- | --- |
| MRFT | ≤ 0.2 |
| FCTS | ≤ 0.2 |
| GRLT | ≤ 0.2 |
| DGDN | ≤ 0.2 |
| ICLN | ≤ 0.2 |
| MRTR | ≤ 0.2 |
| KFFW | ≤ 0.2 |
| RQGR | ≤ 0.2 |
| TRPS | ≤ 0.2 |
| LITI | ≤ 0.2 |
| MHTS | ≤ 0.2 |
| ASFW | ≤ 0.2 |
| RPRW | ≤ 0.2 |
| CPME | ≤ 0.2 |
| HTDC | ≤ 0.2 |
| SNRG | ≤ 0.2 |
| RVLS | 1.03 |
| KGNH | ≤ 0.2 |
| PARW | ≤ 0.2 |
| VVTT | ≤ 0.2 |
| CDYR | ≤ 0.2 |
| CTCA | ≤ 0.2 |
| LSEC | ≤ 0.2 |
| TART | ≤ 0.2 |

| Variant | one-hybrid fitness for binding parS DNA |
| --- | --- |
| HKYR | ≤ 0.2 |
| RFQE | ≤ 0.2 |
| VYRG | ≤ 0.2 |
| DLKP | ≤ 0.2 |
| SNGD | ≤ 0.2 |
| TKKM | ≤ 0.2 |
| PHSL | ≤ 0.2 |
| QVNY | ≤ 0.2 |
| TSTA | ≤ 0.2 |
| WYRV | ≤ 0.2 |
| YFNS | ≤ 0.2 |
| ARLT | ≤ 0.2 |
| HYRA | ≤ 0.2 |
| PQAF | ≤ 0.2 |
| SFEA | ≤ 0.2 |
| GYDS | ≤ 0.2 |
| LISS | ≤ 0.2 |
| QQDV | ≤ 0.2 |
| TKQS | ≤ 0.2 |
| DRNN | ≤ 0.2 |
| YMMS | ≤ 0.2 |
| IYQR | ≤ 0.2 |
| TFRF | ≤ 0.2 |
| VCLC | ≤ 0.2 |

| Variant | one-hybrid fitness for binding parS DNA |
| --- | --- |
| QMGN | ≤ 0.2 |
| KVLM | ≤ 0.2 |
| PGTD | ≤ 0.2 |
| LEPN | ≤ 0.2 |
| AQKR | ≤ 0.2 |
| SCST | ≤ 0.2 |
| NDSA | ≤ 0.2 |
| GWVA | ≤ 0.2 |
| HHPH | ≤ 0.2 |
| VWQR | ≤ 0.2 |
| DLGG | ≤ 0.2 |
| WKFC | ≤ 0.2 |
| TVNV | ≤ 0.2 |
| KRHN | ≤ 0.2 |
| CILR | ≤ 0.2 |
| YWRE | ≤ 0.2 |
| LAGR | ≤ 0.2 |
| EVVI | ≤ 0.2 |
| QCIT | ≤ 0.2 |
| HCVV | ≤ 0.2 |
| PHQR | ≤ 0.2 |
| EANR | ≤ 0.2 |
| ATGI | ≤ 0.2 |
| HERT | ≤ 0.2 |

| Variant | one-hybrid fitness for binding parS DNA |
| --- | --- |
| MWPC | ≤ 0.2 |
| FVIS | ≤ 0.2 |
| YRVA | ≤ 0.2 |
| VVNL | ≤ 0.2 |
| DPAR | ≤ 0.2 |
| TPPS | ≤ 0.2 |
| AYFW | ≤ 0.2 |
| HHKG | ≤ 0.2 |
| SSQR | ≤ 0.2 |
| DRNP | ≤ 0.2 |
| GTFS | ≤ 0.2 |
| SMCH | ≤ 0.2 |
| NLAL | ≤ 0.2 |
| KAQH | ≤ 0.2 |
| AVVR | ≤ 0.2 |
| RYRT | 0.737 |
| QTGV | ≤ 0.2 |
| AMFD | ≤ 0.2 |
| FIKT | ≤ 0.2 |
| YGDG | ≤ 0.2 |
| CFKT | ≤ 0.2 |
| YCLE | ≤ 0.2 |
| ACPG | ≤ 0.2 |
| TRQL | ≤ 0.2 |

| Variant | one-hybrid fitness for binding parS DNA |
| --- | --- |
| YHLM | ≤ 0.2 |
| PNRE | ≤ 0.2 |
| QKEL | ≤ 0.2 |
| RWHN | 0.301 |
| HRLS | 0.387 |
| RKDH | 0.231 |
| KLMA | ≤ 0.2 |
| GARK | ≤ 0.2 |
| GNYC | ≤ 0.2 |
| DMPV | ≤ 0.2 |
| DNLL | ≤ 0.2 |
| HEAS | ≤ 0.2 |
| VEPL | ≤ 0.2 |
| HGRK | ≤ 0.2 |
| SRCA | ≤ 0.2 |
| GMTS | ≤ 0.2 |
| LRNT | ≤ 0.2 |
| HYSL | ≤ 0.2 |
| AYKY | ≤ 0.2 |
| MNAP | ≤ 0.2 |
| RTPL | ≤ 0.2 |
| SVQT | ≤ 0.2 |
| VMRG | ≤ 0.2 |
| VGYR | ≤ 0.2 |

| Variant | one-hybrid fitness for binding parS DNA |
| --- | --- |
| HCVE | ≤ 0.2 |
| SRSQ | ≤ 0.2 |
| VSMF | ≤ 0.2 |
| LYNY | ≤ 0.2 |
| SWHT | ≤ 0.2 |
| YQPN | ≤ 0.2 |
| RRDI | ≤ 0.2 |
| GIAR | ≤ 0.2 |
| AENT | ≤ 0.2 |
| TGWI | ≤ 0.2 |
| GFLD | ≤ 0.2 |
| MRSK | ≤ 0.2 |
| VYDH | ≤ 0.2 |
| RLKQ | ≤ 0.2 |
| DTNR | ≤ 0.2 |
| TYFC | ≤ 0.2 |
| ESDS | ≤ 0.2 |
| PTCR | ≤ 0.2 |
| SHEC | ≤ 0.2 |
| GERG | ≤ 0.2 |
| RLIT | 0.795 |
| LSDR | ≤ 0.2 |
| TPRF | ≤ 0.2 |
| EVKG | ≤ 0.2 |

| Variant | one-hybrid fitness for binding parS DNA |
| --- | --- |
| RTFL | ≤ 0.2 |
| YHCR | ≤ 0.2 |
| RLPA | 0.376 |
| TAMQ | ≤ 0.2 |
| VTVV | ≤ 0.2 |
| VKTK | ≤ 0.2 |
| TFAA | ≤ 0.2 |
| DDCR | ≤ 0.2 |
| YPVI | ≤ 0.2 |
| IIHY | ≤ 0.2 |
| TRVM | ≤ 0.2 |
| PNRR | ≤ 0.2 |
| GNKN | ≤ 0.2 |
| DAGR | ≤ 0.2 |
| DADC | ≤ 0.2 |
| FRKP | ≤ 0.2 |
| LQVT | ≤ 0.2 |
| QLPG | ≤ 0.2 |
| QTMW | ≤ 0.2 |
| HTRG | ≤ 0.2 |
| AHAA | ≤ 0.2 |
| IGSR | ≤ 0.2 |
| QLRK | ≤ 0.2 |
| FCLS | ≤ 0.2 |

| Variant | one-hybrid fitness for binding parS DNA |
| --- | --- |
| KSEV | ≤ 0.2 |
| CRKN | ≤ 0.2 |
| CAHS | ≤ 0.2 |
| HHHL | ≤ 0.2 |
| KSGC | ≤ 0.2 |
| GAMM | ≤ 0.2 |
| MNLM | ≤ 0.2 |
| NDDR | ≤ 0.2 |
| NWYC | ≤ 0.2 |
| INHR | ≤ 0.2 |
| TARA | ≤ 0.2 |
| NCLG | ≤ 0.2 |
| NQCC | ≤ 0.2 |
| DARL | ≤ 0.2 |
| WYCF | ≤ 0.2 |
| HQRE | ≤ 0.2 |
| QGCV | ≤ 0.2 |
| GCRS | ≤ 0.2 |
| QKMM | ≤ 0.2 |
| HAHI | ≤ 0.2 |
| WILQ | ≤ 0.2 |
| AIWR | ≤ 0.2 |
| PQSM | ≤ 0.2 |
| DDCW | ≤ 0.2 |

| Variant | one-hybrid fitness for binding parS DNA |
| --- | --- |
| GHAN | ≤ 0.2 |
| APKL | ≤ 0.2 |
| CCMS | ≤ 0.2 |
| ESHT | ≤ 0.2 |
| SMCV | ≤ 0.2 |
| TYKY | ≤ 0.2 |
| HMIG | ≤ 0.2 |
| QIVF | ≤ 0.2 |
| HKQG | ≤ 0.2 |
| AHTV | ≤ 0.2 |
| RWDS | 0.76 |
| RYGA | 0.539 |
| QLEP | ≤ 0.2 |
| TRWW | ≤ 0.2 |
| APWM | ≤ 0.2 |
| KPSK | ≤ 0.2 |
| YLIT | ≤ 0.2 |
| ARHR | ≤ 0.2 |
